Experimental data published in publication PMC9911399, “Two distinct binding modes provide the RNA-binding protein RbFox with extraordinary sequence specificity”.
Where a chain is given by its changes, count along the chain named. The list shows a part of the results.

T1: RBFOX1 RRM (Homo sapiens, UniProt Q9NWB1 109-208)
T1 sequence: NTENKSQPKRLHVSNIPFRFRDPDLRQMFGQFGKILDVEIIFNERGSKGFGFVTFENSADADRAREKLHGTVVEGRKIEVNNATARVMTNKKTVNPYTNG

B1: UUCGAAG (DNA:RNA)
RNA: GGGAGACCGGAAUUCAGAUUGUCCUUCGAAGUUAAAUCCCGUCGUAGCCACCA
DNA 1: CAATCTGAATTCCGGTCTCCC
DNA 2: TGGTGGCTACGACGGGATT
B2: AAGACGC (DNA:RNA)
RNA: GGGAGACCGGAAUUCAGAUUGUCCAAGACGCUUAAAUCCCGUCGUAGCCACCA
DNA 1: CAATCTGAATTCCGGTCTCCC
DNA 2: TGGTGGCTACGACGGGATT
B3: AUGUGCA (DNA:RNA)
RNA: B2 RNA with A26U, A28U, C29G, G30C, C31A
DNA 1: CAATCTGAATTCCGGTCTCCC
DNA 2: TGGTGGCTACGACGGGATT
B4: UAAAUCC (DNA:RNA)
RNA: B2 RNA with A25U, G27A, C29U, G30C
DNA 1: CAATCTGAATTCCGGTCTCCC
DNA 2: TGGTGGCTACGACGGGATT
B5: CACCCCU (DNA:RNA)
RNA: B2 RNA with A25C, G27C, A28C, G30C, C31U
DNA 1: CAATCTGAATTCCGGTCTCCC
DNA 2: TGGTGGCTACGACGGGATT
B6: CGACACA (DNA:RNA)
RNA: B1 RNA with U25C, U26G, C27A, G28C, A30C, G31A
DNA 1: CAATCTGAATTCCGGTCTCCC
DNA 2: TGGTGGCTACGACGGGATT
B7: UUGUAUG (DNA:RNA)
RNA: B1 RNA with C27G, G28U, A30U
DNA 1: CAATCTGAATTCCGGTCTCCC
DNA 2: TGGTGGCTACGACGGGATT
B8: GUUGCCC (DNA:RNA)
RNA: B2 RNA with A25G, A26U, G27U, A28G, G30C
DNA 1: CAATCTGAATTCCGGTCTCCC
DNA 2: TGGTGGCTACGACGGGATT
B9: CUAUAAC (DNA:RNA)
RNA: B1 RNA with U25C, C27A, G28U, G31C
DNA 1: CAATCTGAATTCCGGTCTCCC
DNA 2: TGGTGGCTACGACGGGATT
B10: UGGGCAU (DNA:RNA)
RNA: B1 RNA with U26G, C27G, A29C, G31U
DNA 1: CAATCTGAATTCCGGTCTCCC
DNA 2: TGGTGGCTACGACGGGATT
B11: UGAACGG (DNA:RNA)
RNA: B2 RNA with A25U, A26G, G27A, C31G
DNA 1: CAATCTGAATTCCGGTCTCCC
DNA 2: TGGTGGCTACGACGGGATT
B12: AAUGGUU (DNA:RNA)
RNA: B2 RNA with G27U, A28G, C29G, G30U, C31U
DNA 1: CAATCTGAATTCCGGTCTCCC
DNA 2: TGGTGGCTACGACGGGATT
B13: CUAAGAU (DNA:RNA)
RNA: B1 RNA with U25C, C27A, G28A, A29G, G31U
DNA 1: CAATCTGAATTCCGGTCTCCC
DNA 2: TGGTGGCTACGACGGGATT
B14: CACAUCG (DNA:RNA)
RNA: B2 RNA with A25C, G27C, C29U, G30C, C31G
DNA 1: CAATCTGAATTCCGGTCTCCC
DNA 2: TGGTGGCTACGACGGGATT
B15: GUUAAGA (DNA:RNA)
RNA: B2 RNA with A25G, A26U, G27U, C29A, C31A
DNA 1: CAATCTGAATTCCGGTCTCCC
DNA 2: TGGTGGCTACGACGGGATT
B16: UACUCGC (DNA:RNA)
RNA: B2 RNA with A25U, G27C, A28U
DNA 1: CAATCTGAATTCCGGTCTCCC
DNA 2: TGGTGGCTACGACGGGATT
B17: GGGCACC (DNA:RNA)
RNA: B2 RNA with A25G, A26G, A28C, C29A, G30C
DNA 1: CAATCTGAATTCCGGTCTCCC
DNA 2: TGGTGGCTACGACGGGATT
B18: CGGACUU (DNA:RNA)
RNA: B2 RNA with A25C, A26G, G30U, C31U
DNA 1: CAATCTGAATTCCGGTCTCCC
DNA 2: TGGTGGCTACGACGGGATT
B19: UCCCUGA (DNA:RNA)
RNA: B1 RNA with U26C, G28C, A29U, A30G, G31A
DNA 1: CAATCTGAATTCCGGTCTCCC
DNA 2: TGGTGGCTACGACGGGATT
B20: CCUAUGA (DNA:RNA)
RNA: B2 RNA with A25C, A26C, G27U, C29U, C31A
DNA 1: CAATCTGAATTCCGGTCTCCC
DNA 2: TGGTGGCTACGACGGGATT
B21: AGGCGUU (DNA:RNA)
RNA: B2 RNA with A26G, A28C, C29G, G30U, C31U
DNA 1: CAATCTGAATTCCGGTCTCCC
DNA 2: TGGTGGCTACGACGGGATT
B22: GGGGCCU (DNA:RNA)
RNA: B2 RNA with A25G, A26G, A28G, G30C, C31U
DNA 1: CAATCTGAATTCCGGTCTCCC
DNA 2: TGGTGGCTACGACGGGATT
B23: CAGUUUA (DNA:RNA)
RNA: B2 RNA with A25C, A28U, C29U, G30U, C31A
DNA 1: CAATCTGAATTCCGGTCTCCC
DNA 2: TGGTGGCTACGACGGGATT
B24: UGAUGGC (DNA:RNA)
RNA: B2 RNA with A25U, A26G, G27A, A28U, C29G
DNA 1: CAATCTGAATTCCGGTCTCCC
DNA 2: TGGTGGCTACGACGGGATT
B25: UGACUAU (DNA:RNA)
RNA: B1 RNA with U26G, C27A, G28C, A29U, G31U
DNA 1: CAATCTGAATTCCGGTCTCCC
DNA 2: TGGTGGCTACGACGGGATT
B26: AAUCCGC (DNA:RNA)
RNA: B2 RNA with G27U, A28C
DNA 1: CAATCTGAATTCCGGTCTCCC
DNA 2: TGGTGGCTACGACGGGATT
B27: UCUCUAG (DNA:RNA)
RNA: B1 RNA with U26C, C27U, G28C, A29U
DNA 1: CAATCTGAATTCCGGTCTCCC
DNA 2: TGGTGGCTACGACGGGATT
B28: CAUUGCC (DNA:RNA)
RNA: B2 RNA with A25C, G27U, A28U, C29G, G30C
DNA 1: CAATCTGAATTCCGGTCTCCC
DNA 2: TGGTGGCTACGACGGGATT
B29: UUUAUUU (DNA:RNA)
RNA: B1 RNA with C27U, G28A, A29U, A30U, G31U
DNA 1: CAATCTGAATTCCGGTCTCCC
DNA 2: TGGTGGCTACGACGGGATT
B30: GACUGUG (DNA:RNA)
RNA: B1 RNA with U25G, U26A, G28U, A29G, A30U
DNA 1: CAATCTGAATTCCGGTCTCCC
DNA 2: TGGTGGCTACGACGGGATT
B31: GAGUCAA (DNA:RNA)
RNA: B2 RNA with A25G, A28U, G30A, C31A
DNA 1: CAATCTGAATTCCGGTCTCCC
DNA 2: TGGTGGCTACGACGGGATT

Biological target: T1, RBFOX1 RRM
Experiment: EMSA; HiTS-Eq, 1 nM pool, 10 min; buffer printed only for the single-RNA assays: 10 mM Tris pH 7.5, 150 mM NaCl, 3.4 mM EDTA, 0.001% NP-40, 30 C
Conditions: tags: His6 N-terminal (pET28a); label: 5' 32P
Procedure, shortened: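 These values rest on relative association constants, computed from read-count changes of each RNA species versus the control reaction and normalised to the cognate motif. Reads came from free RNA recovered by 8% native PAGE after purified RbFox RRM (wild type or mutant) at increasing concentrations was equilibrated for 10 min in 50 µL with 1 nM of a 5′-radiolabelled pool with 7 randomized nucleotides and DNA-annealed flanks.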

Row | Binder | binding signal
1 | B1 | 0.0176 KA relative to UGCAUGU
2 | B2 | 0.00195 KA relative to UGCAUGU
3 | B3 | 0.0238 KA relative to UGCAUGU
4 | B4 | 0.00295 KA relative to UGCAUGU
5 | B5 | 0.00104 KA relative to UGCAUGU
6 | B6 | 0.000662 KA relative to UGCAUGU
7 | B7 | 0.0226 KA relative to UGCAUGU
8 | B8 | 0.0151 KA relative to UGCAUGU
9 | B9 | 0.00159 KA relative to UGCAUGU
10 | B10 | 0.0311 KA relative to UGCAUGU
11 | B11 | 0.0179 KA relative to UGCAUGU
12 | B12 | 0.011 KA relative to UGCAUGU
13 | B13 | 0.00704 KA relative to UGCAUGU
14 | B14 | 0.00432 KA relative to UGCAUGU
15 | B15 | 0.012 KA relative to UGCAUGU
16 | B16 | 0.00662 KA relative to UGCAUGU

Row | Binder | binding signal
17 | B17 | 0.0223 KA relative to UGCAUGU
18 | B18 | 0.0191 KA relative to UGCAUGU
19 | B19 | 0.00782 KA relative to UGCAUGU
20 | B20 | 0.00562 KA relative to UGCAUGU
21 | B21 | 0.0133 KA relative to UGCAUGU
22 | B22 | 0.0256 KA relative to UGCAUGU
23 | B23 | 0.0027 KA relative to UGCAUGU
24 | B24 | 0.0129 KA relative to UGCAUGU
25 | B25 | 0.0127 KA relative to UGCAUGU
26 | B26 | 0.00133 KA relative to UGCAUGU
27 | B27 | 0.00798 KA relative to UGCAUGU
28 | B28 | 0.00747 KA relative to UGCAUGU
29 | B29 | 0.0073 KA relative to UGCAUGU
30 | B30 | 0.0275 KA relative to UGCAUGU
31 | B31 | 0.007 KA relative to UGCAUGU
